Experimental data reported in article PMC8132155.
These are yes or no findings as the source states them, for the method shown. In cells and extracts the contact can be indirect. Some results given as binding are weak or reduced against the parent protein; the word gives no strength.

Protein sequences, listed by entry. Tags and fused reporters are not part of them. Lines headed by an entry give the natural chain unless they say otherwise; changes in a name come on top.
UniProt O14744: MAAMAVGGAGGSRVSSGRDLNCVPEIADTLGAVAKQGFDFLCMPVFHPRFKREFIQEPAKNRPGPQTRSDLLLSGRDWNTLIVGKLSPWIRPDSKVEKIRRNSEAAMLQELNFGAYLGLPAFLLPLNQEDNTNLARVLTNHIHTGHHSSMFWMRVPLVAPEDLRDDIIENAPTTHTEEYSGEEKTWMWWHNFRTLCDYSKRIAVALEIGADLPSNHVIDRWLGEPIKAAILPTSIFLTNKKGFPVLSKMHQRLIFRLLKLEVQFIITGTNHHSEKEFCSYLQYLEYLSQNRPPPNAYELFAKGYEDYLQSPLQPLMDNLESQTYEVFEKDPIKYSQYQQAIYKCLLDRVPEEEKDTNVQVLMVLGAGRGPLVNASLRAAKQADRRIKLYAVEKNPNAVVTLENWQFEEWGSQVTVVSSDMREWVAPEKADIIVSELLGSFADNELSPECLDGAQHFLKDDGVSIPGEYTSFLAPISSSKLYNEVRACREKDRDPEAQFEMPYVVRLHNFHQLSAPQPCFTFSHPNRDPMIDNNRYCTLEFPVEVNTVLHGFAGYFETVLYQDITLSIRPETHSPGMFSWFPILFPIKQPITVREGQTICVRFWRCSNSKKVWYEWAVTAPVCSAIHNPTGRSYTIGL
UniProt O15105: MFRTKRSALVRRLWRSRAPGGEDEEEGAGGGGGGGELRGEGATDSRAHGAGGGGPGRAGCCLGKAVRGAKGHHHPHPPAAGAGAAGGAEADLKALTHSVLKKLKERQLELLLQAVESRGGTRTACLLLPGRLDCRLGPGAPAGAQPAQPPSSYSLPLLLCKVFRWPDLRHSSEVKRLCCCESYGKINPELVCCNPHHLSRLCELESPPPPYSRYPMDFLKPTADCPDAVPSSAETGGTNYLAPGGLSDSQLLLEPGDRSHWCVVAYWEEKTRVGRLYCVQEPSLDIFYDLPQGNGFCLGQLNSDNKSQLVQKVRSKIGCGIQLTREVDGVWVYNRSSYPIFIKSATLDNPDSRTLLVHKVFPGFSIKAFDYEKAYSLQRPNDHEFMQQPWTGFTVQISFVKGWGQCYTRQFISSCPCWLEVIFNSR
UniProt Q9BQA1: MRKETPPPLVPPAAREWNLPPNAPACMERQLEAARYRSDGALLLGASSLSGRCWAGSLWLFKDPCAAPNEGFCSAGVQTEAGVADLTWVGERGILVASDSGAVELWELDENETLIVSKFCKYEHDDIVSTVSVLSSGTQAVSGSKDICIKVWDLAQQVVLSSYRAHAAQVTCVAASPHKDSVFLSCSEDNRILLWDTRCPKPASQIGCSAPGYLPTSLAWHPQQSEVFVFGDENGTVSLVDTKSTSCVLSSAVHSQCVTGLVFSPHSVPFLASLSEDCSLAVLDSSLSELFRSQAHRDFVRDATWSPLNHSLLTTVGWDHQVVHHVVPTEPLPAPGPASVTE

Columns and labels:
HA-PRMT5 [1] = target: HA-PRMT5 (UniProt O14744); assay: co-IP; HEK293T cells transfected with HA-PRMT5 and FLAG-Smad7 without MYC-MEP50; lysate immunoprecipitated with HA antibody, Western blot
HA-PRMT5 [2] = target: HA-PRMT5 (UniProt O14744); assay: co-IP; HEK293T cells transfected with HA-PRMT5, MYC-MEP50 and FLAG-Smad7 or a Smad7 domain; lysate immunoprecipitated with HA antibody, Western blot (Figures 2A, 2C)
GST-Smad7 = GST-Smad7 (UniProt O15105); assay: pull-down; GST or GST-Smad7 on glutathione-sepharose beads incubated with HEK293T cells expressing MYC-tagged PRMT5/MEP50; bound proteins by Western blot; only the target purified
[3] = target: SFB-Smad7 (MCF10A tet-on cells) (UniProt O15105); assay: co-IP; MCF10A-tet-on cells, SFB-Smad7 induced with or without 500 ng/mL Dox for 3 d, treated with 25 ng/mL IL-6 for the indicated time; lysate precipitated with streptavidin beads, Western blot
[4] = target: SFB-Smad7 (MCF10A tet-on cells) (UniProt O15105); assay: condition: only without Dox (SFB-Smad7 not induced); co-IP; MCF10A-tet-on cells, SFB-Smad7 induced with or without 500 ng/mL Dox for 3 d, treated with 25 ng/mL IL-6 for the indicated time; lysate precipitated with streptavidin beads, Western blot

Substance	binding (HA-PRMT5 [2])	binding (GST-Smad7)	also measured
FLAG-Smad7 (from UniProt O15105 1-426)	binds	–	binding (HA-PRMT5 [1]): binds weakly
MYC-MEP50 (from UniProt Q9BQA1 1-342)	–	binds	–
MYC-PRMT5 (from UniProt O14744 1-637) (enzyme)	–	binds	–
Smad7 MH1 domain (aa 1-228) (from UniProt O15105 1-228) (domain or fragment)	no binding	–	–
Smad7-MH2 (aa 228-426) (from UniProt O15105 228-426) (domain or fragment)	binds	–	–
endogenous PRMT5 (MCF10A) (from UniProt O14744 1-637) (enzyme)	–	–	binding [3]: binds; binding [4]: no binding
